# Results: the RNAGym collection of RNA variant scans (doi:10.7554/elife.90254)
# The source gives no read counts; variants with many changes may rest on few reads.
# B1: LINE1-mini (parent)
# chain: GGCAGAGCUCAACACAGCGUGGCAAAGUGGCUGUGGCUAGACUGCC
# Variants of: B1
# Experiment: self-cleavage, relative activity (ratio to wild type); higher = more cleavage; in vitro, sequencing; the parent is a self-cleaving ribozyme
row,Variant,self-cleavage
1,GUCAGAGAUCAACACAGCGUGGCAAAGUGGCUGUGGCUAGACUGAC [G2U C8A C45A],0.11
2,GGCAGUGCUCCACACAGAGUGGCAAAGGGGCUGUGGCUACACUGCC [A6U A11C C18A U28G G40C],0.01
3,GGCGGAGCUCAACACAGCGUUGCGAAGUGGCUGCGGCUAGGCUCCC [A4G G21U A24G U34C A41G G44C],0.02
4,GGCAGAGCGCAAAACAUCGUUGAAAAGUGGGUGUGGCUAGACUGCC [U9G C13A G17U G21U C23A C31G],0.15
5,GGCAGAGCUCAACACAGCAUGGCAAAGUGGCUGUGGCUAGAUGGCC [G19A C42U U43G],0.56
6,GGAAGAGCUCAACACAUCGUGGGAAUGCGGCUGUGGCUAGACUGCC [C3A G17U C23G A26U U28C],0.59
7,GGCACAGCUCUACACAGCGUGGCGAAGUGGCUGUGGCUAGACUGCC [G5C A11U A24G],0.05
8,GGCAGAGAUCAACACAGCGUGGCGAAGUGGCUAUGGCUAGACUAAC [C8A A24G G33A G44A C45A],0.61
9,GGCACAGCUCAACACAGCGUGGCAAAGUGGCUGUGGCAAGAAUGCC [G5C U38A C42A],0.03
10,GCCAGAGCUGAACACAGCGUGGAAAAGUGGCUGUGGCUAGACUGCC [G2C C10G C23A],0.01
11,GGCCGAGCUCAACACAGCCUGGCAAAGUGGCAGAGGCUAGACUGCG [A4C G19C U32A U34A C46G],0.19
12,GGGAGAGCUCAACACUGUGUGGCAAAGUGGCUGUGGCUAGACUGCC [C3G A16U C18U],0.07
13,GGCAGAGCUCACCACAGCGUGGAAAAGUGGCUGUGUCUAGACUGCC [A12C C23A G36U],0.13
14,GGCAUAGCUCAACACAGCGUGACUAAGUGGCUGUGGCUAGACUGCC [G5U G22A A24U],0.11
15,GGGAGAGCUCAAAGCACCGUGGCAUAGCGGCUGUGGCUAGACUGCC [C3G C13A A14G G17C A25U U28C],0.06
16,GAUAGAGCUCAACACAGGGUGGCAAAGUGGCUGUGGCUAGACUGCC [G2A C3U C18G],0.11
17,GGCCGAGCUCAACACAGCGUGGCAAAGUGGGUGUGCCUAGACGGCC [A4C C31G G36C U43G],0.11
18,UGCAGAUCUCAACAUCGCGUGGCAAAGUGGCUGGGGCUAGACUGCC [G1U G7U C15U A16C U34G],0.08
19,GGCAGAGCUCAACACACCGUGGCAAAGUGAUUGUAGCUAGACUGUC [G17C G30A C31U G35A C45U],0.03

row,Variant,self-cleavage
1,GGCAGAGCUCAACACUGCGUGGCAAGGUGGCUGUGGCUAGACUGCG [A16U A26G C46G],0.13
2,GGCAGAGCUCAACACAGAGUGGCAUAGUGGCUGUGGCGAGACUUCC [C18A A25U U38G G44U],0.03
3,GGCAGAGCUCAACACAGCGUGUCAAAGUGGCUGUGGGUAGAAUGCC [G22U C37G C42A],0.02
4,UGCAGAGCUCAACACAGCGUGGCAAAGUGGCUGUGGCUACACUACC [G1U G40C G44A],0.05
5,GGCAGGGCUCAACACAGCGUUGCAACGUGGCUGUGGCUAGACUGCC [A6G G21U A26C],0.2
6,GACAGAGCUAAGCACAGCGUGGCAAAGUGGCUGGGGCUAGACUGCC [G2A C10A A12G U34G],0.01
7,CGCACAGCUCAACACAGCGUGCCAAAGUGGCUGUGGCUAGACUGCC [G1C G5C G22C],0.01
8,GGCAGAGCCCAACACAGCGUGGCAACCUGGCUGUGGCUAGACUGCA [U9C A26C G27C C46A],0.01
9,GGCAGAGGUCAAUACAGCCUGGCAAAGUGGCUGUGGGUAGACUGCC [C8G C13U G19C C37G],0.08
10,GGCACAGCUCAACACAGCGUGGCAAAGUGGCUGAGGCUAGACUGAC [G5C U34A C45A],0.01
11,GGCAGAGCUCAACAGAGCGUCGCGAAGUGGCUGUGGCUAGACUGCC [C15G G21C A24G],0.09
12,GGCAGUGCUAAAUACAGCGUGGAAAAGUGGCUGUGGCUAGACUGUC [A6U C10A C13U C23A C45U],0
13,GGCAGAGCUACACACAGCGUGGCAAAGUGGCUGUUGGUAGACUGCC [C10A A11C G35U C37G],0.01
14,GGCAAAGCUCAACACAGCGGCGCAAAGUGUCUGUUGCUAGACUGCC [G5A U20G G21C G30U G35U],0.02
15,GGCAAAGCUCAAAACAGAGUGGCAAAGUGGCUGUGGCUAAACUGCC [G5A C13A C18A G40A],0.03
16,GGAAGAGCUCAUCACAGUGUGGCAAAGUGGCUGUGGCUAUACUGCC [C3A A12U C18U G40U],0.07
17,GGCAGAGCUCAACAAAACGUCGCAAAGUGGCUGUGGCUAGACUGCA [C15A G17A G21C C46A],0.03
18,GGCAGAGCUCAACGCAGCCUGGCAAACUGCCUGUGGCUAGAGUGCC [A14G G19C G27C G30C C42G],0.05
19,GGCAGAGCUCAACACAGCGUGGCAAAGUCGCUAAGGCCAGACUGCC [G29C G33A U34A U38C],0.01

row,Variant,self-cleavage
1,GGCAGGGCUCAACACCGCGUGGGAAAGUGGCUGUUGCUAGACUGCC [A6G A16C C23G G35U],0.01
2,GGCAGAGUUCAAAACGGCGUGGCAAAGUGGCUGUGGCCAGACUCCC [C8U C13A A16G U38C G44C],0.05
3,GUCAGAGGUAAACAGAACGUGGCAAAGUGGCUGUGGCUAGACUGCC [G2U C8G C10A C15G G17A],0.01
4,GGGAGAGCUCAACACGGCGUGGCAAACUGGCUGUGGGUAGACUGCC [C3G A16G G27C C37G],0.15
5,GGCAGAGCUCAAAACAGCGUGGCAAUGUGGGUAUGGGUAGACUGCC [C13A A26U C31G G33A C37G],0.01
6,GGCAGCGCUCAACACAGCGUGGAAAAAUGGCUGUGGCUAGACUGCC [A6C C23A G27A],0.31
7,AGCAGCGCUCAACACAGCCUGGCAAAGUGGCUGUGGCUCGACUGCC [G1A A6C G19C A39C],0.11
8,GACUAAGCUCAACACAGCGUUGCAAAGUGGCUGUGGCUAGACUGCC [G2A A4U G5A G21U],0.5
9,GGCAGCGCUCAACACACGGUAGCAAAGUGGCAGUGGCUGGACUGAC [A6C G17C C18G G21A U32A A39G C45A],0.04
10,GGCAGAGCCAAAUACAGCGUGGCAAAGUGGCUGUGGCUAGACCGUC [U9C C10A C13U U43C C45U],0.04
11,GGCCGAGCUCAUCACAGCGUGGCAAGGUGGCUGUGGCUAGACAGCC [A4C A12U A26G U43A],0.06
12,GGCAGAGCUCAACACAGAGUGCCAAAGUGGCCCCGGCUAGACUGCC [C18A G22C U32C G33C U34C],0.03
13,GGCAGAGCUAAACACACCAUGGCAAAGUGGCUGUGGCUAACCUGCC [C10A G17C G19A G40A A41C],0.01
14,GGAAGCGCUCAACACAGCGUGGCAAAGUGGGUGUGGCUAGACUGCC [C3A A6C C31G],0.02
15,GGCAGAGCUCAACAAAGCGUGGCAAAGUGGCUGUCCCUAGACUGCC [C15A G35C G36C],0.09
16,GGUAGAGCUCAACACAGCUUGGCAAUGUGGCUGUGGCUCGACUGCC [C3U G19U A26U A39C],0.19
17,GGCUGAGCUCAACACAGCGUUGCAAAGUGGCCGAGGAUAGACUGCC [A4U G21U U32C U34A C37A],0.05
18,GGCAGAGCUCUACAUUGCGUGGCAAAGUGGCUGUGGCUAGACUACC [A11U C15U A16U G44A],0.02
